# Reference: the supplement of paper PMC8728848
# The list shows a part of the results.
# B1: B1567 (Bifidobacterium sp) (protein)
# chain: MKFTTAKKAVALTGAVAMLVSVAACGSDSGKSSQPAQDSDVKEITVWAWEPSLTQVAKDFEKETGIKVDLKNVGTNTKEYTQLDNAIEAGSGAPDVAQVEYYAVPQYAIKGNLLDITDKTSGYKDFYTPGPWASVQFAGKVYGLPMDSGPMAFFYNKEVFDKAGVDAEQIKTWDQYYDAAKKIHALGDNYYITSDTGDAGFFDSMTWLAGAKPFQTSSDGSEVTVNLTEDKGVKTFTDFWQKLLDEGLLDTKTAGWSEDWFKGMVDGTIASLFTGAWMPANLANSAADGAGKWRVTQMPTADGSTTNSENGGSSLAVLASTKKADAAYQFIEYANHGAGVATRVAGGAFPADKASLEKDSFKNATTVKNADGQDVDYFGGQKYNEVLAQAAENVSSGYQFLPFEVKARTIFGDYFGKSYTGDQKLSDGVAAWQKALQDYGKDQGFTVK
# What was measured:
# Experiment in all cases: glycan array binding signal (z-score within array); higher = stronger binding
# Details in all cases: glycan notation: IUPAC condensed, linker removed
# [1] = target: Neu5Ac(a2-6)Gal(b1-3)GlcNAc(b1-3)[Gal(b1-4)GlcNAc(b1-6)]Gal(b1-4)Glc
# Summary of the method: (§1)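 Negative Z-scores can be read as non-binding. The Z-score is calculated within each array and then averaged across arrays of one protein sequence at different concentrations or buffers and across linkers. Arrays, 3228 in all, were curated from the Consortium for Functional Glycomics database and kept only where the protein sequence was available.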
# [2] = target: Neu5Ac(a2-6)Gal(b1-4)Glc
# Summary of the method: as §1
# [3] = target: Neu5Ac(a2-6)Gal(b1-4)GlcNAc
# Summary of the method: as §1
# [4] = target: Neu5Ac(a2-6)Gal(b1-4)GlcNAc(b1-2)Man
# Summary of the method: as §1
# [5] = target: Neu5Ac(a2-6)Gal(b1-4)GlcNAc(b1-2)Man(a1-3)Man(b1-4)GlcNAc(b1-4)GlcNAc
# Summary of the method: as §1
# [6] = target: Neu5Ac(a2-6)Gal(b1-4)GlcNAc(b1-2)Man(a1-3)[Gal(b1-4)GlcNAc(b1-2)Man(a1-6)]Man(b1-4)GlcNAc(b1-4)GlcNAc
# Summary of the method: as §1
# [7] = target: Neu5Ac(a2-6)Gal(b1-4)GlcNAc(b1-2)Man(a1-3)[GlcNAc(b1-2)Man(a1-6)]Man(b1-4)GlcNAc(b1-4)GlcNAc
# Summary of the method: as §1
# [8] = target: Neu5Ac(a2-6)Gal(b1-4)GlcNAc(b1-2)Man(a1-3)[GlcNAc(b1-4)][Neu5Ac(a2-6)Gal(b1-4)GlcNAc(b1-2)Man(a1-6)]Man(b1-4)GlcNAc(b1-4)GlcNAc
# Summary of the method: as §1
# [9] = target: Neu5Ac(a2-6)Gal(b1-4)GlcNAc(b1-2)Man(a1-3)[Man(a1-6)]Man(b1-4)GlcNAc(b1-4)GlcNAc
# Summary of the method: as §1
# [10] = target: Neu5Ac(a2-6)Gal(b1-4)GlcNAc(b1-2)Man(a1-3)[Neu5Ac(a2-3)Gal(b1-4)GlcNAc(b1-2)Man(a1-6)]Man(b1-4)GlcNAc(b1-4)GlcNAc
# Summary of the method: as §1
# [11] = target: Neu5Ac(a2-6)Gal(b1-4)GlcNAc(b1-2)Man(a1-3)[Neu5Ac(a2-6)Gal(b1-4)GlcNAc(b1-2)Man(a1-6)]Man(b1-4)GlcNAc(b1-4)GlcNAc
# Summary of the method: as §1
# [12] = target: Neu5Ac(a2-6)Gal(b1-4)GlcNAc(b1-2)Man(a1-3)[Neu5Ac(a2-6)Gal(b1-4)GlcNAc(b1-2)Man(a1-6)]Man(b1-4)GlcNAc(b1-4)[Fuc(a1-6)]GlcNAc
# Summary of the method: as §1
# [13] = target: Neu5Ac(a2-6)Gal(b1-4)GlcNAc(b1-2)Man(a1-6)Man(b1-4)GlcNAc(b1-4)GlcNAc
# Summary of the method: as §1
# [14] = target: Neu5Ac(a2-6)Gal(b1-4)GlcNAc(b1-2)Man(a1-6)[Gal(b1-4)GlcNAc(b1-2)Man(a1-3)]Man(b1-4)GlcNAc(b1-4)GlcNAc
# Summary of the method: as §1
# [15] = target: Neu5Ac(a2-6)Gal(b1-4)GlcNAc(b1-2)Man(a1-6)[GlcNAc(b1-2)Man(a1-3)]Man(b1-4)GlcNAc(b1-4)GlcNAc
# Summary of the method: as §1
# [16] = target: Neu5Ac(a2-6)Gal(b1-4)GlcNAc(b1-2)Man(a1-6)[Man(a1-3)]Man(b1-4)GlcNAc(b1-4)GlcNAc
# Summary of the method: as §1
# [17] = target: Neu5Ac(a2-6)Gal(b1-4)GlcNAc(b1-2)[Neu5Ac(a2-6)Gal(b1-4)GlcNAc(b1-4)]Man(a1-3)[GlcNAc(b1-4)][Neu5Ac(a2-6)Gal(b1-4)GlcNAc(b1-2)[Neu5Ac(a2-6)Gal(b1-4)GlcNAc(b1-6)]Man(a1-6)]Man(b1-4)GlcNAc(b1-4)GlcNAc
# Summary of the method: as §1
# [18] = target: Neu5Ac(a2-6)Gal(b1-4)GlcNAc(b1-2)[Neu5Ac(a2-6)Gal(b1-4)GlcNAc(b1-4)]Man(a1-3)[GlcNAc(b1-4)][Neu5Ac(a2-6)Gal(b1-4)GlcNAc(b1-4)Man(a1-6)]Man(b1-4)GlcNAc(b1-4)GlcNAc
# Summary of the method: as §1
# [19] = target: Neu5Ac(a2-6)Gal(b1-4)GlcNAc(b1-2)[Neu5Ac(a2-6)Gal(b1-4)GlcNAc(b1-6)]Man(a1-6)[Neu5Ac(a2-6)Gal(b1-4)GlcNAc(b1-2)Man(a1-3)][GlcNAc(b1-4)]Man(b1-4)GlcNAc(b1-4)GlcNAc
# Summary of the method: as §1
# [20] = target: Neu5Ac(a2-6)Gal(b1-4)GlcNAc(b1-3)Gal(b1-3)GlcNAc
# Summary of the method: as §1
# [21] = target: Neu5Ac(a2-6)Gal(b1-4)GlcNAc(b1-3)Gal(b1-4)GlcNAc
# Summary of the method: as §1
# [22] = target: Neu5Ac(a2-6)Gal(b1-4)GlcNAc(b1-3)Gal(b1-4)GlcNAc(b1-2)Man(a1-3)[Neu5Ac(a2-6)Gal(b1-4)GlcNAc(b1-3)Gal(b1-4)GlcNAc(b1-2)Man(a1-6)]GalNAc
# Summary of the method: as §1
# [23] = target: Neu5Ac(a2-6)Gal(b1-4)GlcNAc(b1-3)Gal(b1-4)GlcNAc(b1-3)Gal(b1-4)GlcNAc
# Summary of the method: as §1
# [24] = target: Neu5Ac(a2-6)Gal(b1-4)GlcNAc(b1-3)Gal(b1-4)GlcNAc(b1-3)Gal(b1-4)GlcNAc(b1-2)Man(a1-3)[Neu5Ac(a2-6)Gal(b1-4)GlcNAc(b1-3)Gal(b1-4)GlcNAc(b1-3)Gal(b1-4)GlcNAc(b1-2)Man(a1-6)]GalNAc
# Summary of the method: as §1
# [25] = target: Neu5Ac(a2-6)Gal(b1-4)GlcNAc(b1-3)Gal(b1-4)GlcNAc(b1-3)GalNAc
# Summary of the method: as §1
# [26] = target: Neu5Ac(a2-6)Gal(b1-4)GlcNAc(b1-3)Gal(b1-4)GlcNAc(b1-3)[Neu5Ac(a2-6)Gal(b1-4)GlcNAc(b1-3)Gal(b1-4)GlcNAc(b1-6)]GalNAc
# Summary of the method: as §1
# [27] = target: Neu5Ac(a2-6)Gal(b1-4)GlcNAc(b1-3)Gal(b1-4)GlcNAc(b1-6)[Gal(b1-3)]GalNAc
# Summary of the method: as §1
# [28] = target: Neu5Ac(a2-6)Gal(b1-4)GlcNAc(b1-3)Gal(b1-4)[Fuc(a1-3)]GlcNAc(b1-3)Gal(b1-4)[Fuc(a1-3)]GlcNAc
# Summary of the method: as §1
# [29] = target: Neu5Ac(a2-6)Gal(b1-4)GlcNAc(b1-3)GalNAc
# Summary of the method: as §1
# [30] = target: Neu5Ac(a2-6)Gal(b1-4)GlcNAc(b1-3)[Neu5Ac(a2-6)Gal(b1-4)GlcNAc(b1-6)]GalNAc
# Summary of the method: as §1
# [31] = target: Neu5Ac(a2-6)Gal(b1-4)GlcNAc(b1-6)GalNAc
# Summary of the method: as §1
# [32] = target: Neu5Ac(a2-6)Gal(b1-4)GlcNAc(b1-6)[Gal(b1-3)GlcNAc(b1-3)]Gal(b1-4)Glc
# Summary of the method: as §1
# [33] = target: Neu5Ac(a2-6)Gal(b1-4)GlcNAc(b1-6)[Gal(b1-3)]GalNAc
# Summary of the method: as §1
# [34] = target: Neu5Ac(a2-6)Gal(b1-4)GlcNAc6S
# Summary of the method: as §1
# [35] = target: Neu5Ac(a2-6)GalNAc
# Summary of the method: as §1
# [36] = target: Neu5Ac(a2-6)GalNAc(b1-4)GlcNAc
# Summary of the method: as §1
# [37] = target: Neu5Ac(a2-6)GalNAc(b1-4)GlcNAc6S
# Summary of the method: as §1
# [38] = target: Neu5Ac(a2-6)GlcNAc(b1-4)GlcNAc
# Summary of the method: as §1
binder,measurement,setting,value
B1,glycan array binding signal (z-score),[1],-0.118
same,glycan array binding signal (z-score),[2],-0.136
same,glycan array binding signal (z-score),[3],-0.107
same,glycan array binding signal (z-score),[4],-0.065
same,glycan array binding signal (z-score),[5],-0.117
same,glycan array binding signal (z-score),[6],-0.128
same,glycan array binding signal (z-score),[7],-0.135
same,glycan array binding signal (z-score),[8],-0.107
same,glycan array binding signal (z-score),[9],-0.15
same,glycan array binding signal (z-score),[10],-0.036
same,glycan array binding signal (z-score),[11],-0.09
same,glycan array binding signal (z-score),[12],-0.116
same,glycan array binding signal (z-score),[13],-0.096
same,glycan array binding signal (z-score),[14],-0.073
same,glycan array binding signal (z-score),[15],-0.14
same,glycan array binding signal (z-score),[16],-0.109
same,glycan array binding signal (z-score),[17],-0.141
same,glycan array binding signal (z-score),[18],-0.06
same,glycan array binding signal (z-score),[19],-0.107
same,glycan array binding signal (z-score),[20],-0.055
same,glycan array binding signal (z-score),[21],-0.147
same,glycan array binding signal (z-score),[22],-0.126
same,glycan array binding signal (z-score),[23],-0.089
same,glycan array binding signal (z-score),[24],-0.031
same,glycan array binding signal (z-score),[25],-0.112
same,glycan array binding signal (z-score),[26],-0.042
same,glycan array binding signal (z-score),[27],-0.12
same,glycan array binding signal (z-score),[28],-0.063
same,glycan array binding signal (z-score),[29],-0.119
same,glycan array binding signal (z-score),[30],0.054
same,glycan array binding signal (z-score),[31],0.003
same,glycan array binding signal (z-score),[32],-0.079
same,glycan array binding signal (z-score),[33],-0.122
same,glycan array binding signal (z-score),[34],-0.094
same,glycan array binding signal (z-score),[35],-0.111
same,glycan array binding signal (z-score),[36],-0.119
same,glycan array binding signal (z-score),[37],-0.045
same,glycan array binding signal (z-score),[38],-0.072
